# According to PubChem BioAssay AID1745853 (National Center for Advancing Translational Sciences (NCATS), 2022):
# Several values for one entry are separate records, joined by “and”; a condition that tells them apart may be missing. Equal entries are not always repeated. This is one part of the list. The main result of the screen is listed elsewhere. These columns were measured beside it and carry no call.
# Experiments:
# Assay in all cases: Primary Screen for Target Class Profiling of Small Molecule Inhibitors of Methyltransferases
# [1] = target: Glycine N-methyltransferase (Homo sapiens) (UniProt Q14749); conditions: purified enzyme, MTase-Glo SAH luminescence; measured here: GNMT inhibition; at 40 µM; stronger effect = lower value
# Procedure, shortened: (§1)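 Each enzyme was assayed with SAM and its substrate. SAH formation detected by MTase-Glo luminescence; single-point 40 uM screen[…].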
# [2] = target: Guanidinoacetate N-methyltransferase (Homo sapiens) (UniProt Q14353); conditions: purified enzyme, MTase-Glo SAH luminescence; measured here: GAMT inhibition; at 40 µM; stronger effect = lower value
# Procedure, shortened: as §1
# [3] = target: Histamine N-methyltransferase (Homo sapiens) (UniProt P50135); conditions: purified enzyme, MTase-Glo SAH luminescence; measured here: HNMT inhibition; at 40 µM; stronger effect = lower value
# Procedure, shortened: as §1
# [4] = target: Nicotinamide N-methyltransferase (Homo sapiens) (UniProt P40261); conditions: purified enzyme, MTase-Glo SAH luminescence; measured here: NNMT inhibition; at 40 µM; stronger effect = lower value
# Procedure, shortened: as §1
# [5] = target: Phenylethanolamine N-methyltransferase (Homo sapiens) (UniProt P11086); conditions: purified enzyme, MTase-Glo SAH luminescence; measured here: PNMT inhibition; at 40 µM; stronger effect = lower value
# Procedure, shortened: as §1
# % is set by controls: 0 for no effect and ±100 for the full control effect.
Structure (SMILES),"activity change, negative = inhibition [1]","activity change, negative = inhibition [2]","activity change, negative = inhibition [3]","activity change, negative = inhibition [4]","activity change, negative = inhibition [5]"
Fc1cnc(N2CCCC(OCc3cccnc3)C2)nc1N1CCOCC1 (configuration not stated),-7.35%,-9.9%,-2.1%,-15.5%,-10.3%
O=C1C[C@@]2(C(=O)N1)C(=O)N(Cc1ccc(Br)cc1F)C(=O)c1cccn12,-5.4%,2.27%,3.92%,-14.7%,-2.39%
O=c1[nH]nc2n1CCN(C1CCOCC1)CC2,-4.8%,-1.86%,-0.074%,-5.35%,-3.52%
O=C(NCc1ccco1)NC1CCc2nnc(C3CC3)n2CC1 (configuration not stated),3.52%,-1.6%,0.677%,-4.56%,1.72%
CC(C)Oc1ccc(CN2C(=O)c3cc4occc4n3CC2(C)C(=O)NC2CCCCC2)cc1 (configuration not stated),-8.66%,5.88%,-3.86%,-6.93%,-4.67%
Cc1nc2sccn2c(=O)c1CCN1CCC(=C(c2ccc(F)cc2)c2ccc(F)cc2)CC1,-3.28%,9.23%,-6.51%,-37.4%,4.6%
CN1CCN(Cc2ccc(-c3cnc4[nH]cc(-c5ccc6[nH]ccc6c5)c4c3)cc2)CC1,-29.7%,2.87%,-48.8%,-32.4%,-19.9%
COc1cccc(S(=O)(=O)N2CCC3(CCCCO3)CC2)c1,-11.7%,-11.4%,1.61%,-15.1%,-8.15%
COCCCNC(=O)c1cc2n(n1)CC(C)(C(=O)NCc1ccccc1)N(C)C2=O (configuration not stated),-1.84%,-1.55%,-0.055%,-3.04%,-4.83%
CCC(C)/C=C(C)/C=C/C1=CC2=C(Cl)C(=O)C(C)(OC(C)=O)C(=O)C2=CN1CCCCC(N)C(=O)O (configuration not stated),-0.107%,-0.916%,-2.02%,-13.1%,-0.008%
O=C(c1cccs1)N1CCc2[nH]nc(-c3cccc(F)c3)c2C1,-14.3%,-2.4%,-6.95%,-20.8%,-4.36%
CC(OC1OCCN(Cc2n[nH]c(=O)[nH]2)C1c1ccc(F)cc1)c1cc(C(F)(F)F)cc(C(F)(F)F)c1 (configuration not stated),-0.146%,–,11.8%,–,–
Cc1ccccc1CNC(=O)C1(C)Cc2ccccc2C(=O)N1Cc1cc(F)cc(F)c1 (configuration not stated),13.3%,0%,11.9%,2.98%,9.22%
CCN1CCN(C(=O)C2CCCN(Cc3ccncc3)CCC(=O)NCC2)CC1 (configuration not stated),-2.73%,-1.88%,-1.49%,-0.48%,2.79%
COc1ccc(C2(C(=O)N3CCC[C@H]3c3nc(-c4ccccc4Cl)no3)CC2)cc1,-5.83%,-5.86%,-5.5%,-12.7%,-5.87%
COc1ccc(C(=O)N2CCC(N3Cc4cnc(C)n4C3=O)CC2)cc1,-6.03%,-6.49%,-2.83%,-12.3%,-9.22%
CCOc1ccc(CCN2C(=O)c3cc4ccccc4n3CC2(C)C(=O)NCCC(C)C)cc1OCC (configuration not stated),2.34%,4.54%,-0.593%,-2.97%,-2.54%
Cc1ccc(C)c(S(=O)(=O)c2nnn3c2nc(NCCc2c[nH]c4ccccc24)c2ccccc23)c1,-8.07%,1.08%,-9.2%,-11%,-9.48%
O=C(NCC(O)CO)c1ccncc1Nc1ccc(I)cc1F (configuration not stated),-0.688%,3.43%,11.9%,-9.2%,1.56%
Cc1oc(S(=O)(=O)N2CCCCC2)cc1NC(=O)Nc1ccccc1,2.8%,3.78%,8.53%,-10.2%,-0.664%
C=C1C(=O)[C@@]23C(CC[C@@H]1[C@H]2O)[C@@]12CO[C@]3(O)[C@@H](O)[C@@H]1C(C)(C)CC[C@@H]2O (some centres not stated),-2.52%,2.22%,1.73%,-14.3%,-4.35%

Structure (SMILES),"activity change, negative = inhibition [1]","activity change, negative = inhibition [2]","activity change, negative = inhibition [3]","activity change, negative = inhibition [4]","activity change, negative = inhibition [5]"
CCCCN1C(=O)c2cc(C(=O)Nc3ccccc3Cl)nn2CC1(C)C(=O)NC1CCCC1 (configuration not stated),-1.05%,3.73%,-14%,2.96%,3.48%
COCC(=O)N[C@H]1CCN(C(=O)COC)[C@H](C(=O)N[C@H](Cc2ccccc2)C(N)=O)C1,-1.78%,-6.53%,-1.11%,-3.26%,-0.996%
COC(=O)c1ncn2c1C(=O)N(Cc1ccc(OC)cc1OC)C(C)(C(=O)NC1CCCCC1)C2 (configuration not stated),4.88%,1.06%,1.5%,0.387%,4.66%
COc1ccc(OC)c(S(=O)(=O)NCC2CNCCOC2)c1 (configuration not stated),-2.84%,0.91%,-2.96%,-2.18%,-5.08%
CCOC(=O)Cc1c(-c2ccccc2)c2cc(C)ccc2[nH]c1=O,0.599%,0%,7.82%,11.8%,1.12%
O=C1CCC=CC1(O)C(=O)OCc1ccccc1O[C@@H]1O[C@H](CO)[C@@H](O)[C@H](O)[C@H]1O (some centres not stated),-2.24%,-12.8%,3.97%,-25.1%,-11%
CN1CCN2c3ccccc3Cc3ccccc3C2C1 (configuration not stated),3.65%,11.4%,8.39%,-11.6%,-1%
O=C1NCCOCCN(C(=O)NC2CCCCC2)[C@@H]2CCCC[C@H]12,-3.07%,-4.97%,-0.753%,-1.44%,3.14%
CCN(Cc1ccccc1)C(=O)CN(C)S(=O)(=O)c1ccc2[nH]c3c(c2c1)CCCC3,-1.14%,4.37%,1.42%,-4.77%,-1.23%
O=C(Cc1ccsc1)Nc1ccc2c(N3CCCC3)ncnc2c1,-27.2%,-16.7%,-87.6%,-25.3%,-15.1%
N[C@@H](Cc1ccc(O)c(O)c1)C(=O)O,-32.6%,6.08%,0.279%,-5.35%,4.56%
O=C1NC2CCCCN2C12CCN(CCCN1c3ccccc3CCc3ccc(Cl)cc31)CC2 (configuration not stated),2.9%,4.85%,-74.4%,-46.9%,3.5%
COCCCNC(=O)C1(CCO)CCN(c2ncccn2)C1 (configuration not stated),-0.602%,-3.03%,1.03%,1.73%,0.472%
O=C(CCc1nnc2n(CCc3ccccc3)c(=O)c3ccccc3n12)NCc1ccccc1,-9.13%,2.36%,-0.563%,-0.974%,-4.12%
CCCCc1ncc(/C=C(\Cc2cccs2)C(=O)O)n1Cc1ccc(C(=O)O)cc1,2.5% and -0.303%,16.3% and 0.716%,13.9% and 5.85%,-1.41% and -9.97%,3% and -2.1%
O=C(CCc1nnc2n(Cc3ccccc3Cl)c(=O)c3ccccc3n12)NCCc1ccccc1,-12.1%,1.74%,0.907%,-9.29%,-5.67%
Cc1oc2ccn(Cc3cccc(F)c3)c(=O)c2c1C(=O)NC1CCCC1,-14.8%,-10.4%,-8.42%,-38.6%,-32.1%
Cc1ccc(NC(=O)CSc2nnc3n(CC(C)C)c(=O)c4ccc(Cl)cc4n23)c(C)c1,-1.77%,-2.57%,2.55%,-4.27%,-4.62%
C[S+](=O)([O-])NC1CC2(CCN(C(=O)c3ccccc3)CC2)c2ccccc21 (configuration not stated),-4.85%,-1.91%,-1.49%,-8.77%,3.87%
CC(C)CCN1C(=O)c2ccc(-c3ccccc3)n2CC1(C)C(=O)NC1CCCCC1 (configuration not stated),2.71%,0.459%,3.82%,3.56%,1.9%
Cc1cc(NC(=O)N2CCn3cccc3C2Cc2ccccc2)ccc1Br (configuration not stated),9.67%,0%,8.91%,-1.14%,4.43%

Structure (SMILES),"activity change, negative = inhibition [1]","activity change, negative = inhibition [2]","activity change, negative = inhibition [3]","activity change, negative = inhibition [4]","activity change, negative = inhibition [5]"
Fc1cccc(-c2cc(-c3cn[nH]c3)c3cncn3c2)c1,-26.4%,-15%,-26.7%,-25.8%,-17.1%
CCN(CC)CCNC(=O)CCc1nnc2n(CCc3ccccc3)c(=O)c3ccccc3n12,-3.73%,0%,-33.4%,4.18%,-0.416%
O=C1Nc2ccccc2CC12CCCN2C1COC1 (configuration not stated),-6.32%,-8.79%,-3.1%,-9.74%,-18.5%
COC(=O)c1cc2n(n1)CC(C)(C(=O)NC1CCCCCC1)N(c1ccc(Cl)cc1C)C2=O (configuration not stated),1.09%,4.53%,2.95%,0%,0.217%
Cc1cccc(S(=O)(=O)N2CCCC(Cn3c(C4CC4)nc4cccnc43)C2)c1 (configuration not stated),-30.4%,-4.14%,-5.47%,-12.5%,-8.62%
CCOC(=O)C1CCN(C(=O)C2CCc3nnc(CN[S+](C)(=O)[O-])n32)CC1 (configuration not stated),0.378%,-1.17%,2.12%,1.51%,-1.39%
CCCCN1C(=O)c2cc(C(=O)NCc3ccc(F)cc3)nn2CC1(C)C(=O)NC1CCCC1 (configuration not stated),2.6%,0%,2.71%,0.129%,1.6%
C#CCN(C)C(=O)C[C@@H]1c2nc(NC(=O)CCCCC)sc2C[C@@H]2[C@](C)(CO)[C@H](O)CC[C@]21C,-3.71%,-3.86%,-4.07%,-6.25%,-5.07%
C/C=C(/C=C(C)/C=C/C=C/C=C(\C)C(=O)C12OC1C(O)(CCO)NC2=O)C(=O)OC (configuration not stated),-4.08%,3.87%,1.29%,-8.99%,1.46%
CC(C)Cn1c(=O)c2ccccc2n2c(CCC(=O)N3CCN(C(c4ccccc4)c4ccccc4)CC3)nnc12,-9.03%,0.964%,9.06%,-17.9%,0.792%
CCOC(=O)Cn1c(=O)oc2cc(S(=O)(=O)NCCc3ccc(OCC)c(OCC)c3)ccc21,-4.62%,3.21%,-1.77%,5.18%,-6.95%
CN(CCN1C(=O)c2cc3occc3n2CC1(C)C(=O)NC1CCCCCCC1)C1CCCCC1 (configuration not stated),1.02%,0.241%,-1.25%,19.4%,-2.91%
CCCn1c(=O)c2ccc(C(=O)NC(C)C)cc2n2c(SCC(=O)NC(C)(C)C)nnc12,1.53%,2.66%,7.87%,-4.17%,1.21%
CNc1ccc([N+](=O)[O-])c(Nc2ccc3[nH]ncc3c2)n1,-10.8%,-1.2%,4.16%,-18.9%,-6.06%
O=S(=O)(c1ccccc1)c1nnn2c1nc(NC1CCCCC1)c1cc(Cl)ccc12,-1.65%,0%,3.35%,1.7%,-2.88%
CC(C(=O)NCc1ccc2c(c1)OCO2)n1ccc2cc(S(=O)(=O)N3CCCC3)ccc21 (configuration not stated),-0.048%,4.47%,2%,-6.6%,0.986%
c1ccc(-c2[nH]nc3ncc(-c4cn[nH]c4)nc23)cc1,-80%,-34.3%,-46%,-58.7%,-34.1%
O=C(NCCc1ccc(Cl)cc1)C1CCc2nnc(CN[S+](=O)([O-])c3ccccc3Cl)n21 (configuration not stated),-1.72%,-1.73%,-3.22%,-0.669%,4.08%
CC1(C(=O)NC2CCCC2)Cn2c(cc3ccccc32)C(=O)N1CCc1cccs1 (configuration not stated),1.32%,0%,2.28%,2.98%,0.943%
